Experimental findings from patent publication US20100168225A1, “Small-Molecule Hepatitis C Virus (HCV) NS3/4A Serine Protease Inhibitors” (priority 2007, published 2010) are described below.

SMILES strings stand for the structures. Where two headings read alike, the source gives them in different places. Bounds are passed on as bounds.

As a reminder, the IC50 is the point on the concentration scale where inhibition reaches its midpoint. A low value points to higher potency. The term Ki denotes a dissociation constant, usually derived from enzyme kinetics or from competition with a known ligand. Higher therefore signals weaker binding.

Test [1] concerns the target T1, HCV NS3/4A protease (Hepatitis C virus genotype 1a, UniProt P27958). Description: biochemical. In kind it is biochemical.
Test [2] addresses T1, HCV NS3/4A protease. The conditions noted are these: for ID90: HPLC; for k0 (base) / k1 (max) / k2 (xhalf) / k3 (rate): sigmoidal fit parameter.
Test [3] addresses T1, HCV NS3/4A protease. The test can be described thus: biochemical. Particulars: HPLC.
Where [4] appears, read: ID50 (μM) (by kinetic assay) HCV NS3^PRO.
Where [5] appears, read: Expt 7-37, fit did not converge after 40 iterations.

With `COc1ccc2ccc(=O)oc2c1OC` [Compound C18, 7,8-dimethoxydaphnetin], the IC50 at HCV NS3/4A protease [1] (ID50 (μM) (by kinetic assay)) is above 300 µM.

In turn, `Cc1cc(=O)oc2cc(O)c(O)cc12` [Compound C3, 4-methylesculetin] yielded an IC50 on HCV NS3/4A protease [1] (ID50 (μM) (by kinetic assay)) above 300 µM.

In the case of `COc1cc2ccc(=O)oc2cc1O` [Compound C7, Scopoletin], the IC50 at HCV NS3/4A protease [1] (ID50 (μM) (by kinetic assay)) is above 300 µM.

Consider `O=c1cc(O)c2ccccc2o1` [Compound C15, 4-hydroxycoumarin], for which the IC50 against HCV NS3/4A protease [1] (ID50 (μM) (by kinetic assay)) was above 300 µM.

`O=c1oc2ccccc2cc1O` [Compound C14, 3-hydroxycoumarin] had an IC50 at HCV NS3/4A protease [1] (ID50 (μM) (by kinetic assay)) above 300 µM.

On HCV NS3/4A protease [1] (ID50 (μM) (by kinetic assay)), `O=c1cc(-c2ccccc2)c2cc(O)c(O)cc2o1` [Compound C20, Nordalbergin] returned an IC50 above 300 µM.

In the case of `Cc1cc(=O)oc2cc(O)cc(O)c12` [Compound C9, 5,7-dihydroxy-4-methylcoumarin], the IC50 on HCV NS3/4A protease [1] (ID50 (μM) (by kinetic assay)) was above 300 µM.

For the molecule `COc1cc2ccc(=O)oc2cc1OC` [Compound C5, Scoparone], on HCV NS3/4A protease [1] (ID50 (μM) (by kinetic assay)), the IC50 is above 300 µM.

As for `O=c1ccc2ccc(O)c(O)c2o1` [Compound C10, Daphnetin], the IC50 is 23.8 µM against HCV NS3/4A protease [1] (ID50), 25 µM at HCV NS3/4A protease [1] (ID50 (μM) (by kinetic assay)), 25 µM against HCV NS3/4A protease [1] (setting [4]) and 25 µM on HCV NS3/4A protease [1] (ID50 (μm)-by kinetic assay).

Take `Cc1cc(=O)oc2c(O)c(O)ccc12` [Compound C8, 4-methyldaphnetin]: the IC50 against HCV NS3/4A protease [1] (ID50 (μM) (by kinetic assay)) came out at 109 µM; against HCV NS3/4A protease [1] (ID50 (μm)-by kinetic assay) it was 108 µM.

At HCV NS3/4A protease [1] (ID50 (μM) (by kinetic assay)), `COc1cc2oc(=O)ccc2cc1O` [Compound C6, Isoscopoletin] came in with an IC50 above 300 µM.

Consider `CCOC(=O)c1cc(=O)oc2cc(O)c(O)cc12` [MC8, Esculetin-4-ethyl ester], for which the IC50 against HCV NS3/4A protease [1] (ID50) turned out to be 28.6 µM; at HCV NS3/4A protease [1] (ID50 (μM) (by kinetic assay)), 25.2 µM; against HCV NS3/4A protease [1] (ID50 (μm)-by kinetic assay), 25.2 µM.

On HCV NS3/4A protease [1] (ID50 (μM) (by kinetic assay)), `Cc1c(CC(=O)O)c(=O)oc2c(O)c(O)ccc12` [Compound C16, 7,8-dihydroxy-4-methylcoumarin-3-acetic acid] showed an IC50 above 300 µM.

Consider `COc1cc2ccc(=O)oc2c(O)c1O` [Compound C19, Fraxetin], for which the IC50 on HCV NS3/4A protease [1] (ID50 (μM) (by kinetic assay)) is above 300 µM.

Regarding `CC(=O)Nc1cc2cc(OC(C)=O)c(OC(C)=O)cc2oc1=O` [Compound C12, 3-aminoacyl-6,7-diacetoxycoumarin], the IC50 against HCV NS3/4A protease [1] (ID50 (μM) (by kinetic assay)) and against HCV NS3/4A protease [1] (setting [4]) was above 300 µM each time.

At HCV NS3/4A protease [1] (ID50 (μM) (by kinetic assay)), `CCOC(=O)c1cc(=O)oc2cc(O)c(OC)cc12` [FM16, Scopoletin-4-ethyl ester] yielded an IC50 of 393 µM.

For `O=c1oc2c(O)c(O)ccc2cc1O` [Compound C21, 3,7,8-trihydroxycoumarin], the mechanism of inhibition result at HCV NS3/4A protease [1] was “non-competitive”. Moreover, the IC50 on HCV NS3/4A protease [1] (ID50) amounted to 1.6 µM; at HCV NS3/4A protease [1] (ID50 (μM) (by kinetic assay)), 2.1 µM; on HCV NS3/4A protease [1] (setting [4]), 2.1 µM; against HCV NS3/4A protease [3] (ID50, Average of Expt 7-36 and 7-37), 1.61 µM; on HCV NS3/4A protease [3] (ID50, Expt 7-36, 0.1 μM reading used as 100% control), 2.02 µM; against HCV NS3/4A protease [3] (ID50, Expt 7-37, sigmoidal fit did not converge after 40 iterations), 1.34 µM. The ID90 entry on HCV NS3/4A protease [2] (Expt 7-36, 0.1 μM reading used as 100% control) was “ID90 = 4.41 μM”; at HCV NS3/4A protease [2] (Expt 7-37, sigmoidal fit did not converge after 40 iterations), “ID90 = 6.38 μM”. The results for the “k0 (base)” value on HCV NS3/4A protease [2] (Avg), on HCV NS3/4A protease [2] (Expt 7-36) and at HCV NS3/4A protease [2] (setting [5]) were 107.014, 79.759 and 285.386, respectively. The “k1 (max)” value on HCV NS3/4A protease [2] (Avg) was −101.545; at HCV NS3/4A protease [2] (Expt 7-36), −74.5116; on HCV NS3/4A protease [2] (setting [5]), −280.039. Moreover, the “k2 (xhalf)” value at HCV NS3/4A protease [2] (Avg) is 1.278; at HCV NS3/4A protease [2] (Expt 7-36), 2.333; at HCV NS3/4A protease [2] (setting [5]), −2.129. In addition, the figures for the “k3 (rate)” value on HCV NS3/4A protease [2] (Avg), on HCV NS3/4A protease [2] (Expt 7-36) and at HCV NS3/4A protease [2] (setting [5]) were 1.337, 0.773 and 2.085, respectively.

In the case of `O=c1oc2cc(O)c(O)cc2cc1O` [Compound C11, 3-hydroxyesculetin], the Ki on HCV NS3/4A protease [1] stood at 0.46 µM. Also, the mechanism of inhibition result on HCV NS3/4A protease [1] is reported as “non-competitive”. For the same molecule, the IC50 came out at 3 µM against HCV NS3/4A protease [1] (ID50), 3.07 µM on HCV NS3/4A protease [1] (ID50 (μM) (by kinetic assay)), 3.07 µM against HCV NS3/4A protease [1] (setting [4]) and 3.07 µM on HCV NS3/4A protease [1] (ID50 (μm)-by kinetic assay).

On to `CC(=O)Nc1cc2ccc(OC(C)=O)c(OC(C)=O)c2oc1=O` [Compound C22, 3-aminoacyl-7,8-diacetoxycoumarin], for which the half-maximal inhibitory concentration (IC50) against HCV NS3/4A protease [1] (ID50 (μM) (by kinetic assay)) and against HCV NS3/4A protease [1] (setting [4]) was 185 µM throughout.

With `O=c1ccc2ccc(O)cc2o1` [Compound C13, Umbelliferone], the IC50 at HCV NS3/4A protease [1] (ID50 (μM) (by kinetic assay)) is above 300 µM.

`COc1ccc2ccc(=O)oc2c1O` [Compound C17, 7-methoxydaphnetin]: on HCV NS3/4A protease [1] (ID50 (μM) (by kinetic assay)), the IC50 was above 300 µM.

With `O=c1ccc2cc(O)c(O)cc2o1` [Compound C4, Esculetin], the IC50 against HCV NS3/4A protease [1] (ID50 (μM) (by kinetic assay)) and on HCV NS3/4A protease [1] (ID50 (μm)-by kinetic assay) was 280 µM in each case.
